Article PMC11911400, “Mechanism of ASF1 engagement by CDAN1” (Nature Communications, 2025)
Numbering of substitutions follows the chain as printed. No constants are given. Whether binding was seen depends on the method and setting. Binding seen in cells or lysates may run through a third protein. Some entries that bind do so weakly or less than the wild type.

Amino acid sequences for entries named in this document (tags omitted).
UniProt Q9Y294: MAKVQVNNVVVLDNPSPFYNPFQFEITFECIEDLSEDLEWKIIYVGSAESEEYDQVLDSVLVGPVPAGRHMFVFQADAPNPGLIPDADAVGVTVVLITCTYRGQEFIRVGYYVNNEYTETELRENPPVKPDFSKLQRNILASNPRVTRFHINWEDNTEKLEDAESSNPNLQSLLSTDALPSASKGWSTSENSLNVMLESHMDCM
UniProt Q9NVP2: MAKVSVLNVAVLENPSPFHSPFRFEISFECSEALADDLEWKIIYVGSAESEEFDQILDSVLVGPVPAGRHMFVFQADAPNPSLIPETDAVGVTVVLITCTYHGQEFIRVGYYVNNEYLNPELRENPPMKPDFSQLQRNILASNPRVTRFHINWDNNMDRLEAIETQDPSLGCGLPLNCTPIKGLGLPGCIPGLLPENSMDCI

T1: Strep-CDAN1 HMHA1* BDA1* HMHA2* (three elements mutated) (human) (UniProt Q8IWY9)
T1 sequence: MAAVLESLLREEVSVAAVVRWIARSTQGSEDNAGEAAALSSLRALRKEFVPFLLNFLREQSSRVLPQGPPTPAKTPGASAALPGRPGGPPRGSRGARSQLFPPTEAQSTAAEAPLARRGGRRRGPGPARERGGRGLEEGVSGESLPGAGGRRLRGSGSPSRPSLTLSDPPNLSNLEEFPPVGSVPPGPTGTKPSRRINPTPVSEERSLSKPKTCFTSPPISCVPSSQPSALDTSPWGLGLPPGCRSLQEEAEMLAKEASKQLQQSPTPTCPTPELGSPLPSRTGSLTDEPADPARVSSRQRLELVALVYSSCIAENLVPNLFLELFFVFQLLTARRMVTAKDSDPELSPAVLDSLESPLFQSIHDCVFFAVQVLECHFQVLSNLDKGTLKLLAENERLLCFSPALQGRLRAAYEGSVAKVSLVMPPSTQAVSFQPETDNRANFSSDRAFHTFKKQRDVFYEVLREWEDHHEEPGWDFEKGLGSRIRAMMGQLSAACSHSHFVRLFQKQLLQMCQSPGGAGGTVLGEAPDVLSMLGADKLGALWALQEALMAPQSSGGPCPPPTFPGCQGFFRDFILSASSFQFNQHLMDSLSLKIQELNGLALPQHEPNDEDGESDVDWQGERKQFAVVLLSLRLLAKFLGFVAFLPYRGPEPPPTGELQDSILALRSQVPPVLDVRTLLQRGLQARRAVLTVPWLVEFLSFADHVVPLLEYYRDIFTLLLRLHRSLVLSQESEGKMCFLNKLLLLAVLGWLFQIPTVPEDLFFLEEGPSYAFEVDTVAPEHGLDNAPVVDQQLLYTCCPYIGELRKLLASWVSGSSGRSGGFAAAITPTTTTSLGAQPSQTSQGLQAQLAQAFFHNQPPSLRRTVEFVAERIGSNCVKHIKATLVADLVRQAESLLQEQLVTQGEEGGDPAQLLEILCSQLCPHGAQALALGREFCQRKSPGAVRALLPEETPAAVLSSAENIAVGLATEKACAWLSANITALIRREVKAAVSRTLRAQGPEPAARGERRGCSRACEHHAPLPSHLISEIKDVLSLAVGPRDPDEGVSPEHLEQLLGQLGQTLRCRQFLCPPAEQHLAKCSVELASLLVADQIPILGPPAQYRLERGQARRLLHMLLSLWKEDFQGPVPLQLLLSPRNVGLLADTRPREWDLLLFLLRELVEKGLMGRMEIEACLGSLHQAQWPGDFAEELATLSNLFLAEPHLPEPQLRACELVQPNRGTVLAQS

T2: Strep-CDAN1 BDA1* BDA2* (both B-domains mutated) (human) (UniProt Q8IWY9)
T2 sequence: T1 sequence with S194A, R195A, R196A, A251R, A255R, A258R, A541R, A544R, A548R

B1: FLAG-tagged CDIN1 (F-CDIN1) (natural protein, UniProt Q9Y2V0 1-281, looked up)
chain: MILTKAQYDEIAQCLVSVPPTRQSLRKLKQRFPSQSQATLLSIFSQEYQKHIKRTHAKHHTSEAIESYYQRYLNGVVKNGAAPVLLDLANEVDYAPSLMARLILERFLQEHEETPPSKSIINSMLRDPSQIPDGVLANQVYQCIVNDCCYGPLVDCIKHAIGHEHEVLLRDLLLEKNLSFLDEDQLRAKGYDKTPDFILQVPVAVEGHIIHWIESKASFGDECSHHAYLHDQFWSYWNRFGPGLVIYWYGFIQELDCNRERGILLKACFPTNIVTLCHSIA
notes: C15orf41); cDNA synthesized by IDT; source: Expi293, transiently transfected, in lysate and purified in complexes (anti-FLAG, Strep-Tactin); not shown: 3xFLAG, N-terminal, kept

Columns and labels:
[1] = molecular target: T1, Strep-CDAN1 HMHA1* BDA1* HMHA2* (three elements mutated) (human); assay: pull-down; Strep-Tactin pulldown of transiently transfected ST-CDAN1 variants from Flp-In 293 T-REx lysates; endogenous ASF1A, ASF1B and CDIN1 detected by immunoblotting; IP buffer with 1% Triton X-100, 1 hr at 4 °C
[2] = molecular target: T2, Strep-CDAN1 BDA1* BDA2* (both B-domains mutated) (human); assay: as above
[3] = molecular target: FLAG-tagged ASF1A (F-ASF1A) (human) (UniProt Q9Y294); assay: co-IP; anti-FLAG IP (first step of the tandem purification) from lysates of transiently transfected Expi293 cells; IP buffer with 1% Triton X-100, 4 °C; elution with 3xFLAG peptide; immunoblotting

Row | Molecule | binding [1] | binding [2] | binding [3]
1 | endogenous ASF1B (from UniProt Q9NVP2 1-202) | no binding |  | 
2 | B1 |  | binds | binds
